Test results from PubChem BioAssay AID1030 (National Center for Advancing Translational Sciences (NCATS), 2008).
Hit rate of the full screen: of about 220,000 compounds, about 16,000 (7.3%) were called active. The shares of active, inactive and inconclusive entries below differ from those in the screen. The call rests on the fitted dose curve; in most records, active means well fitted inhibition curve with a large enough effect (not every such curve was filed as active); inconclusive means small, poorly fitted or top-dose-only effect, or another doubt; inactive means no such curve, though single readings can be large or run the other way. Potencies beside an inconclusive call are fits to weak or partial responses and may not hold up. Where a structure was tested more than once in an assay, its records may differ in their call.

These molecules were tested against Aldehyde dehydrogenase 1A1 (Homo sapiens) (UniProt P00352) (assay: qHTS Assay for Inhibitors of Aldehyde Dehydrogenase 1 (ALDH1A1)). Conditions: Purified ALDH1A1, NADH fluorescence, propionaldehyde substrate; series mostly up to 75.3 µM.
Potency means the concentration at half of the fitted maximal effect; tags describe the fitted curve by direction and shape.

Chain of UniProt P00352 (P00352 whole entry, looked up): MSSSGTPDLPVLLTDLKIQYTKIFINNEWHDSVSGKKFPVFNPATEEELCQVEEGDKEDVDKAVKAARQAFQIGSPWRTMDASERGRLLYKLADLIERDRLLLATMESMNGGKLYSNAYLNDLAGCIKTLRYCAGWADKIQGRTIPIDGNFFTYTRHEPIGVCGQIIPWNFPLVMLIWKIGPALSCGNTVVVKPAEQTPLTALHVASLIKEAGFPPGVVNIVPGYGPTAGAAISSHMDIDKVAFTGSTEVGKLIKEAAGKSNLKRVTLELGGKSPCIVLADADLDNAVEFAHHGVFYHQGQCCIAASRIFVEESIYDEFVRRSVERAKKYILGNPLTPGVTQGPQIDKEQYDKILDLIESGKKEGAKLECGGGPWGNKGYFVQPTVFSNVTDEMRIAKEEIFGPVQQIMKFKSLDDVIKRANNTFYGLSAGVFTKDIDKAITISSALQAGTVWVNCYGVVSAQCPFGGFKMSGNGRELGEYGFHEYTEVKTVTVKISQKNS

Potency, inactive:
CC(=O)/C(C#N)=C1\NC(=O)C(Cc2ccccc2Cl)S1 (stereo unspecified), CCc1cc(C(=O)N2CCCC(CNC(=O)c3ccc(-c4ccccc4)cc3)C2)no1 (stereo unspecified), CC(C)CN(CC(C)C)c1nnc(N)s1, NC(=O)C1CCN(CC(=O)Nc2ccccc2Sc2ccc(Cl)cc2)CC1, CC(C)c1csc(CN2CCC(CO)(Cc3cccc(F)c3)CC2)n1, CCCc1nn(C)c(C(=O)Nc2ccccc2)c1Cl, COc1ccc(-c2csc3ncn(-c4cccc(C)c4)c(=O)c23)cc1OC, CC(=O)NS(=O)(=O)c1cccnc1Nc1ccc(Cl)cc1

Potency, inconclusive:
N#Cc1cc2cc3c(cc2nc1N1CCOCC1)OCO3 28.2 µM [inhibitor, partial curve], CCc1ccc2[nH]c(=O)c(C(c3nnnn3Cc3ccc(OC)cc3)N3CCOCC3)cc2c1 (stereo unspecified) 39.8 µM [inhibitor, single point], CC(=O)Nc1ccc(NC(=O)c2sc3nc4n(c(=O)c3c2C)CCCCC4)cc1 8.91 µM [inhibitor, partial curve], Cc1ccccc1-n1c(SCC(=O)N/N=C/c2sccc2C)nc2ccccc2c1=O 39.8 µM [inhibitor, single point], COc1ccc(S(=O)(=O)NCCc2nnc3ccc(SCC(=O)Nc4cc(C)on4)nn23)cc1 31.6 µM [inhibitor, single point], O=C(CSc1ncccn1)N1CCN(C(c2ccccc2)c2ccccc2)CC1 35.5 µM [inhibitor, single point], CCN(CC)c1ccc2cc(-c3nc4ccccc4n3C)c(=O)oc2c1 39.8 µM [inhibitor, single point], COc1ccc(N(Cc2ccccc2)C(=O)c2ccccc2[N+](=O)[O-])cc1 39.8 µM [inhibitor, single point], N#Cc1c(NC(=O)C2CC(c3c(F)cccc3Cl)=NO2)sc2c1CCC2 (stereo unspecified) 25.1 µM [inhibitor, single point], CCOC(=O)c1cc(C(=O)OCC)c2cc(Br)ccc2n1 1.5 µM [inhibitor, partial curve], Cc1cc(NC(=O)CCCn2ccc([N+](=O)[O-])n2)n(Cc2ccc(F)cc2)n1 37.7 µM [inhibitor, single point], O=C(NC(=S)N1CCc2ccccc21)C1CCC1 0.708 µM [inhibitor, single point], COc1ccc(Cl)cc1N1C(=O)CC(N2CCc3ccccc32)C1=O (stereo unspecified) 20 µM [inhibitor, partial curve], CN(c1ccccc1)c1nc(N)c([N+](=O)[O-])c(N2CCOCC2)n1 39.8 µM [inhibitor, single point], Cc1nc2cnc(N(C)C)nc2n(-c2ccccc2)c1=O 31.6 µM [inhibitor, single point], CCOC(=O)c1ccc(NC(=O)CN2CCN(c3ccccc3)CC2)cc1 39.8 µM [inhibitor, single point], COCCCn1c(SCC(=O)Nc2ccc3c(c2)OCCO3)nnc1-c1ccoc1C 31.6 µM [inhibitor, single point], CCOc1ccc(N(C(=O)c2ccccc2Cl)C2=NC(C)(C)CS2)cc1 39.8 µM [inhibitor, single point], O=C(COC(=O)c1cccs1)Nc1cccc(S(=O)(=O)N2CCOCC2)c1 39.8 µM [inhibitor, single point], O=C(NCC1CCCO1)c1cccc(Oc2ccc([N+](=O)[O-])cc2Cl)c1 (stereo unspecified) 35.5 µM [inhibitor, single point], COc1ccc(CN2C(=O)c3cccnc3C2Nc2cc(Cl)ccc2OC)cc1 (stereo unspecified) 7.94 µM [inhibitor, full curve], Cc1ccc(N(CC(=O)NCCc2ccc(F)cc2)S(=O)(=O)c2ccc(Cl)c([N+](=O)[O-])c2)c(C)c1 39.8 µM [inhibitor, single point], CC1CCN(C(c2cc3cc4c(cc3[nH]c2=O)OCO4)c2nnnn2CC2CCCO2)CC1 (stereo unspecified) 14.1 µM [inhibitor, partial curve], C=CCc1ccc(OCC(O)CN2CCC(Cc3ccccc3)CC2)c(OC)c1 (stereo unspecified) 28.2 µM [inhibitor, single point], CCOC(=O)c1cnn2c1[nH]c(=O)c1ccccc12 39.8 µM [inhibitor, single point]

Potency, active:
Cc1cccn2c(=O)c(/C=C(\C#N)C(=O)NCc3ccco3)c(N3CCCC(C)C3)nc12 (stereo unspecified) 25.1 µM, CCOC(=O)C(=O)C1=C(N2CCOCC2)/C(=C\c2cccc([N+](=O)[O-])c2)CC1 2.24 µM, CS(=O)(=O)N1N=C(c2ccccc2)CC1c1ccc2c(c1)OCO2 (stereo unspecified) 2.38 µM, CCOC(=O)c1ccc(N2C(=O)CC(Sc3nc(O)c(CC)c(=O)[nH]3)C2=O)cc1 (stereo unspecified) 10 µM, Cc1ccc(-c2nnc(SCC(=O)N3CCCc4ccccc43)n2N)cc1 12.6 µM, CC(NC(=O)c1cc2ccccc2o1)C(=O)O (stereo unspecified) 22.4 µM, O=C(CSc1nnc(CNC(=O)c2c(F)cccc2Cl)o1)Nc1ccc2c(c1)OCCO2 17.8 µM, COc1ccc(NC(=O)c2sc(SCc3ccccc3)nc2N)cc1 12.6 µM, Cc1cccc(/C=C2/SC(=O)N(Cc3ccccc3)C2=O)n1 6.31 µM, Cn1c(=O)n(C)c2cc(NS(=O)(=O)c3ccc4c(c3)CCCC4)ccc21 1 µM, COCn1c(=O)c2c(nc(SC3=NCCS3)n2Cc2ccccc2C)n(COC)c1=O 2.82 µM, O=C1NC(=O)C(c2ccccc2[N+](=O)[O-])=C1Nc1ccc(O)c(Cl)c1 28.2 µM, O=C(CSc1nc2ncccc2[nH]1)c1cccc([N+](=O)[O-])c1 8.91 µM
